{"source": "the BET-seq Pho4 binding data (Le et al. 2018)", "note": "The list shows a part of the results. The energies were worked out here from pooled read counts, against the library average; single values are noisy."}
{"molecular_target": "T1, Pho4 (S. cerevisiae) (UniProt P07270)", "T1 sequence": "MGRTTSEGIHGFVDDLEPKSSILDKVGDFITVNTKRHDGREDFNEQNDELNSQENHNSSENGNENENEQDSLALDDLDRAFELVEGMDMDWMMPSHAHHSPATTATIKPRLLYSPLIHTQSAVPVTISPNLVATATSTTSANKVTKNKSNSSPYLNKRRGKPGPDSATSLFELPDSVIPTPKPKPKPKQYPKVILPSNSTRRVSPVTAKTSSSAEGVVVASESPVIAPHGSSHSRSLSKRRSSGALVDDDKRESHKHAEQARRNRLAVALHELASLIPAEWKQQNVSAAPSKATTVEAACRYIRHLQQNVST", "assay": "relative binding free energy (BET-seq); higher = weaker binding", "conditions": "reference: library average", "units": {"relative binding free energy": "kcal/mol"}}
{"sequence": "GGTGGCACGTGGTAGC", "relative binding free energy": -0.04}
{"sequence": "TGGGTCACGTGCTAAT", "relative binding free energy": -0.01}
{"sequence": "GCGGTCACGTGTGTAT", "relative binding free energy": 0.19}
{"sequence": "TGGAACACGTGACGTG", "relative binding free energy": 0.09}
{"sequence": "TTTTCCACGTGTGAGG", "relative binding free energy": 0.11}
{"sequence": "TGGAACACGTGTTATA", "relative binding free energy": -0.02}
{"sequence": "TGGTACACGTGTTGCA", "relative binding free energy": 0.1}
{"sequence": "AAGTGCACGTGGGAGT", "relative binding free energy": -0.11}
{"sequence": "GCGGGCACGTGGGCGT", "relative binding free energy": -0.16}
{"sequence": "TTTGACACGTGAAGAG", "relative binding free energy": 0.11}
{"sequence": "TGCAGCACGTGTGGTG", "relative binding free energy": -0.13}
{"sequence": "CCTGTCACGTGGTTGT", "relative binding free energy": 0.06}
{"sequence": "GGTTGCACGTGAGTCT", "relative binding free energy": 0.31}
{"sequence": "TGTATCACGTGACGCT", "relative binding free energy": 0.25}
{"sequence": "ATGGGCACGTGCGATA", "relative binding free energy": -0.15}
{"sequence": "TGGGACACGTGAAGTA", "relative binding free energy": 0.25}
{"sequence": "TAAAGCACGTGTATGG", "relative binding free energy": 0}
{"sequence": "GGAGGCACGTGTAAAT", "relative binding free energy": 0.15}
{"sequence": "CATTTCACGTGTTCGG", "relative binding free energy": 0.22}
{"sequence": "GGTAGCACGTGATAGT", "relative binding free energy": 0.06}
{"sequence": "GGGGTCACGTGCTTAA", "relative binding free energy": 0.16}
{"sequence": "AAGGGCACGTGCGGTT", "relative binding free energy": -0.11}
{"sequence": "TATAGCACGTGTAGCG", "relative binding free energy": -0.02}
{"sequence": "AGGGCCACGTGGTAAG", "relative binding free energy": -0.23}
{"sequence": "AGAGGCACGTGTAATG", "relative binding free energy": -0.08}
{"sequence": "GATGACACGTGGGTTA", "relative binding free energy": 0.04}
{"sequence": "GAGGGCACGTGGATTT", "relative binding free energy": 0.01}
{"sequence": "TGTAACACGTGAGAGG", "relative binding free energy": 0.21}
{"sequence": "TGGAACACGTGTAAAT", "relative binding free energy": 0.3}
{"sequence": "TGGCGCACGTGTTTTG", "relative binding free energy": -0.07}
{"sequence": "CTGTTCACGTGGTCAT", "relative binding free energy": 0.27}
{"sequence": "GGTTCCACGTGGTGAG", "relative binding free energy": 0.12}
{"sequence": "TAAATCACGTGGGCGG", "relative binding free energy": 0.11}
{"sequence": "CGAAGCACGTGTGTGG", "relative binding free energy": -0.05}
{"sequence": "CGGGGCACGTGTAATG", "relative binding free energy": -0.01}
{"sequence": "TTAATCACGTGTATGG", "relative binding free energy": 0.08}
{"sequence": "TGGTTCACGTGGTCGC", "relative binding free energy": 0.3}
{"sequence": "GTGGGCACGTGGTAAC", "relative binding free energy": -0.02}
{"sequence": "CGGGGCACGTGTGGAA", "relative binding free energy": 0.07}
{"sequence": "ATGAGCACGTGCGTAT", "relative binding free energy": -0.03}
{"sequence": "GGGGCCACGTGTGTTG", "relative binding free energy": -0.1}
{"sequence": "AACGGCACGTGTTTAT", "relative binding free energy": -0.01}
{"sequence": "GAGTACACGTGATAGG", "relative binding free energy": 0.28}
{"sequence": "AATAGCACGTGGGTGC", "relative binding free energy": -0.26}
{"sequence": "CATAGCACGTGGTTTA", "relative binding free energy": -0.1}
{"sequence": "ATTAGCACGTGTAATA", "relative binding free energy": 0.15}
{"sequence": "GTGTCCACGTGGGGTC", "relative binding free energy": -0.12}
{"sequence": "AGCGTCACGTGGGTCA", "relative binding free energy": 0.01}
{"sequence": "TGTAGCACGTGAGCTG", "relative binding free energy": 0.07}
{"sequence": "GTTGGCACGTGTGGTT", "relative binding free energy": 0.03}
{"sequence": "GGTTGCACGTGGTTAG", "relative binding free energy": 0.05}
{"sequence": "GTTAGCACGTGTGTAC", "relative binding free energy": 0}
{"sequence": "GGTCGCACGTGTTAAG", "relative binding free energy": 0.11}
{"sequence": "TTGCTCACGTGATTAT", "relative binding free energy": 0.34}
{"sequence": "CATTACACGTGAGGGG", "relative binding free energy": 0.23}
{"sequence": "TCGGACACGTGGAGTT", "relative binding free energy": 0.06}
{"sequence": "TCCTTCACGTGTTGGT", "relative binding free energy": 0.2}
{"sequence": "ATTTGCACGTGATCGT", "relative binding free energy": 0.03}
{"sequence": "CGTTGCACGTGGGGCA", "relative binding free energy": -0.13}
{"sequence": "ATAGGCACGTGAGCGT", "relative binding free energy": 0.14}
{"sequence": "GGGATCACGTGGTGCT", "relative binding free energy": 0.07}
{"sequence": "TATCGCACGTGATTTG", "relative binding free energy": 0.07}
{"sequence": "GGTTACACGTGGAAGT", "relative binding free energy": 0.22}
{"sequence": "GCTTTCACGTGATTTT", "relative binding free energy": 0.53}
{"sequence": "TAAAACACGTGGGTGA", "relative binding free energy": 0.03}
{"sequence": "CGGTTCACGTGTAAGT", "relative binding free energy": 0.29}
{"sequence": "GATTCCACGTGAGTTT", "relative binding free energy": 0.44}
{"sequence": "AGCGTCACGTGAGGTC", "relative binding free energy": 0.25}
{"sequence": "GAGTGCACGTGTACGT", "relative binding free energy": -0.02}
{"sequence": "TCGTTCACGTGGTGAG", "relative binding free energy": 0.32}
{"sequence": "TTTTTCACGTGATTTT", "relative binding free energy": 0.31}
{"sequence": "TCGGGCACGTGGGTTA", "relative binding free energy": -0.17}
{"sequence": "CGTGCCACGTGGGGGA", "relative binding free energy": -0.18}
{"sequence": "TTTGGCACGTGCTTGA", "relative binding free energy": -0.1}
{"sequence": "TGATTCACGTGTGCTG", "relative binding free energy": 0.17}
{"sequence": "TATCGCACGTGGTGTT", "relative binding free energy": -0.13}
{"sequence": "GTTAGCACGTGAAAAG", "relative binding free energy": 0.33}
{"sequence": "ACAATCACGTGGGGTT", "relative binding free energy": -0.11}
{"sequence": "AGGTTCACGTGGTGAC", "relative binding free energy": 0.2}
{"sequence": "GGCGGCACGTGCGGAA", "relative binding free energy": 0.03}
{"sequence": "AAGTTCACGTGTAGTT", "relative binding free energy": 0.46}
{"sequence": "ACGTGCACGTGAAGTG", "relative binding free energy": 0.03}
{"sequence": "TATTTCACGTGGTTAT", "relative binding free energy": 0.17}
{"sequence": "TTAGTCACGTGTATCT", "relative binding free energy": 0.06}
{"sequence": "CTAGGCACGTGTTTGT", "relative binding free energy": -0.29}
{"sequence": "TCGTTCACGTGGTAGA", "relative binding free energy": 0.35}
{"sequence": "TAATGCACGTGCGAGT", "relative binding free energy": -0.06}
{"sequence": "GGCGGCACGTGTGATG", "relative binding free energy": 0.05}
{"sequence": "AGGCACACGTGTGTTG", "relative binding free energy": -0.07}
{"sequence": "CTGTACACGTGTTTTA", "relative binding free energy": 0.11}
{"sequence": "TGATCCACGTGTTTTA", "relative binding free energy": 0.09}
{"sequence": "GCCTGCACGTGGTTGT", "relative binding free energy": 0.01}
{"sequence": "GGGGTCACGTGTTCCG", "relative binding free energy": 0.25}
{"sequence": "TTGTACACGTGTGCTG", "relative binding free energy": 0.04}
{"sequence": "GTTTCCACGTGACTGT", "relative binding free energy": 0.43}
{"sequence": "TCTTGCACGTGGCTTG", "relative binding free energy": 0.02}
{"sequence": "CTGTTCACGTGCTTTG", "relative binding free energy": 0.31}
{"sequence": "TGTTGCACGTGCAGCG", "relative binding free energy": 0.02}
{"sequence": "GAGTTCACGTGAATTT", "relative binding free energy": 0.46}
{"sequence": "TTAGGCACGTGTCTAT", "relative binding free energy": -0.12}
{"sequence": "GGTAGCACGTGTTCAG", "relative binding free energy": -0.04}
{"sequence": "TGGCGCACGTGGACGT", "relative binding free energy": -0.1}
{"sequence": "GGTACCACGTGGGATG", "relative binding free energy": -0.05}
{"sequence": "ATGGGCACGTGTAGTT", "relative binding free energy": 0}
{"sequence": "TGTGACACGTGGCTTG", "relative binding free energy": 0.02}
{"sequence": "TATGGCACGTGATATC", "relative binding free energy": 0}
{"sequence": "GTTTACACGTGGGGTG", "relative binding free energy": 0.03}
{"sequence": "TGTGCCACGTGTTGCA", "relative binding free energy": -0.05}
{"sequence": "GGGGTCACGTGGGTGA", "relative binding free energy": 0.06}
{"sequence": "TGATGCACGTGCGCGT", "relative binding free energy": -0.11}
{"sequence": "GCGTTCACGTGGTGGG", "relative binding free energy": 0.22}
{"sequence": "CATGCCACGTGTGGGG", "relative binding free energy": -0.23}
{"sequence": "GCTGTCACGTGGGGGT", "relative binding free energy": 0.03}
{"sequence": "GGTGCCACGTGGAAGG", "relative binding free energy": 0.03}
{"sequence": "CAAAGCACGTGTTGGT", "relative binding free energy": 0.09}
{"sequence": "AGTATCACGTGGCGGT", "relative binding free energy": 0.18}
{"sequence": "TGGGACACGTGTGCTT", "relative binding free energy": 0.01}
{"sequence": "GTTTACACGTGGTGGA", "relative binding free energy": 0.08}
{"sequence": "TTTTACACGTGGCTGA", "relative binding free energy": 0.06}
{"sequence": "AGGGCCACGTGGGCCG", "relative binding free energy": -0.25}
{"sequence": "TCTTGCACGTGGTTGA", "relative binding free energy": -0.08}
{"sequence": "AAGTGCACGTGTGTGA", "relative binding free energy": -0.09}
{"sequence": "GAGTACACGTGGGTTA", "relative binding free energy": 0}
{"sequence": "GATTTCACGTGAGGGA", "relative binding free energy": 0.46}
{"sequence": "CGTGGCACGTGGTGGC", "relative binding free energy": -0.06}
{"sequence": "ATGCGCACGTGAGTAT", "relative binding free energy": 0.19}
{"sequence": "AGGATCACGTGTGAAT", "relative binding free energy": 0.29}
{"sequence": "CGGGGCACGTGGAGGT", "relative binding free energy": 0.03}
{"sequence": "GGTTACACGTGTTGTC", "relative binding free energy": 0.19}
{"sequence": "TTGCGCACGTGCGTTT", "relative binding free energy": -0.06}
{"sequence": "TTGACCACGTGTAGGG", "relative binding free energy": 0.02}
{"sequence": "GGGGCCACGTGGTGAT", "relative binding free energy": -0.26}
{"sequence": "GCAGTCACGTGGGAGG", "relative binding free energy": -0.02}
{"sequence": "ATGTTCACGTGGCCAG", "relative binding free energy": 0.33}
{"sequence": "TGGGACACGTGGCGTG", "relative binding free energy": -0.13}
{"sequence": "TGGTTCACGTGATTTT", "relative binding free energy": 0.41}
{"sequence": "TTTAGCACGTGTATGG", "relative binding free energy": -0.05}
{"sequence": "CGAGTCACGTGATTGG", "relative binding free energy": 0.01}
{"sequence": "TGCTGCACGTGATTAG", "relative binding free energy": 0.11}
{"sequence": "ATACGCACGTGTGTGA", "relative binding free energy": 0.08}
{"sequence": "TAATTCACGTGATGTT", "relative binding free energy": 0.34}
{"sequence": "TAGTACACGTGTAGAT", "relative binding free energy": 0.24}
{"sequence": "AGTTTCACGTGAATGA", "relative binding free energy": 0.44}
{"sequence": "TTACGCACGTGGATAT", "relative binding free energy": 0.03}
{"sequence": "TTATTCACGTGGCTAG", "relative binding free energy": 0.15}
{"sequence": "GAGTGCACGTGTTATG", "relative binding free energy": 0.04}
